No constants are given. Whether binding was seen depends on the method and setting. For part of these data: In cells and extracts the contact can be indirect. Some binding calls cover weakened binding; strength is not graded here. Sequences can lack the tags named with a protein.
How the values were obtained:
[1] = target: T1, N-terminal 108 amino acid residues of TIE1 fused to GAL4-DBD (Arabidopsis thaliana) (UniProt Q6IDB0); assay: two-hybrid; yeast two-hybrid screening of an Arabidopsis transcription factor library; bait: N-terminal 108 residues of TIE1
T1 sequence: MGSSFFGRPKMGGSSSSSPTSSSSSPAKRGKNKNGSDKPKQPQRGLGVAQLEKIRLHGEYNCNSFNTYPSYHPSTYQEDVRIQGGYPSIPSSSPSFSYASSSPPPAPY

[2] = target: T2, TIE4 (Arabidopsis thaliana) (UniProt F4IGU3); assay: two-hybrid; TIE2, TIE3 or TIE4 with BRC1; SD-Leu-Trp-His with 2.5 mM 3-amino-1,2,4 triazole
T2 sequence: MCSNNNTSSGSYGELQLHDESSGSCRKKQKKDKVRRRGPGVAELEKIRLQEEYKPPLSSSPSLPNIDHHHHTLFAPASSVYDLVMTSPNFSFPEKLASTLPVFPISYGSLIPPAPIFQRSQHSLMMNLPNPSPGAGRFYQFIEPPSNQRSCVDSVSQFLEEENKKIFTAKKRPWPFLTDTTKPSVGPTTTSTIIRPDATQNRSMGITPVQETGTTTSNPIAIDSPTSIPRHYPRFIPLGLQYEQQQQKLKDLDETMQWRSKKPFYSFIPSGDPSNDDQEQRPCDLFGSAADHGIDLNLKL

[3] = target: T3, TIE3 (Arabidopsis thaliana) (UniProt Q9SHQ9); assay: as above
T3 sequence: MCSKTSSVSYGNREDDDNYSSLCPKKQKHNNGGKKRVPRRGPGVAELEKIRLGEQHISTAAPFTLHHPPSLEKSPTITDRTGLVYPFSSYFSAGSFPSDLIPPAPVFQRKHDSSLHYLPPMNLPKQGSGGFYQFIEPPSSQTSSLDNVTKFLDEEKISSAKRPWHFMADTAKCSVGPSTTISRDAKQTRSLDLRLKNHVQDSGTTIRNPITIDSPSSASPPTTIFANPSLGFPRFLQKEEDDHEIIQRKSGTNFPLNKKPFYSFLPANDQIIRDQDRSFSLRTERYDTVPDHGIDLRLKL

[4] = target: T4, TIE2 (Arabidopsis thaliana) (UniProt Q84X40); assay: as above
T4 sequence: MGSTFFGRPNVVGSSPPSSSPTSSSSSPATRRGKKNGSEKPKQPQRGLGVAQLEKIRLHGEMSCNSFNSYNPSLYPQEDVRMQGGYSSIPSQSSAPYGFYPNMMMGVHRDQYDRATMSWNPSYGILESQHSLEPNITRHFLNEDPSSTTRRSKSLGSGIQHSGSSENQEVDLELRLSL

[5] = target: T1, N-terminal 108 amino acid residues of TIE1 fused to GAL4-DBD (Arabidopsis thaliana); assay: two-hybrid; bait DBD-TIE1N in pDEST32, preys AD-BRC1/BRC2 in pDEST22; yeast AH109; SD-Leu-Trp-His with 5 mM 3-AT
[6] = target: T1, N-terminal 108 amino acid residues of TIE1 fused to GAL4-DBD (Arabidopsis thaliana); assay: two-hybrid; bait TIE1(1-108) in pGBKT7-GW, BRC1 fragments and mutants in pGADT7-GW; yeast AH109; medium without Leu, Trp and His with 5 mM 3-AT
[7] = target: T5, BRC1 fused to the MALTOSE BINDING PROTEIN (Arabidopsis thaliana) (UniProt A1YKT1); assay: pull-down; MBP-BRC1 or MBP mixed with TIE1-His, Amylose resin, 4°C 3 h; 20 mM Tris-HCl pH 7.4, 200 mM NaCl, 1 mM EDTA; six washes; anti-His immunoblot
T5 sequence: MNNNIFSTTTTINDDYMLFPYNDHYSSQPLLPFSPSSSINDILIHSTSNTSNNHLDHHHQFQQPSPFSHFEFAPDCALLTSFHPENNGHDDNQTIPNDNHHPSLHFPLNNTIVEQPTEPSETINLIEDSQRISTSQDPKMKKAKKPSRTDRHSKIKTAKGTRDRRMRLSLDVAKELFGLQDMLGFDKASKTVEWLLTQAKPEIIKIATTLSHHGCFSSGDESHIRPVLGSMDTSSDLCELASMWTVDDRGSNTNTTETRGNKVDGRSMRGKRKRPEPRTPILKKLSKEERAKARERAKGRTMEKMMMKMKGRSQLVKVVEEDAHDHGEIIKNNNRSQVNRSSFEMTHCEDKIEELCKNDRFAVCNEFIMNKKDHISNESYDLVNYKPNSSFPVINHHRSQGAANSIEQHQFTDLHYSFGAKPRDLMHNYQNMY

[8] = target: T6, cCFP-BRC1 (Arabidopsis thaliana) (UniProt A1YKT1); assay: split reporter; BiFC: nYFP-TIE1 and cCFP-BRC1 co-infiltrated in N. benthamiana leaves; confocal microscopy
T6 sequence: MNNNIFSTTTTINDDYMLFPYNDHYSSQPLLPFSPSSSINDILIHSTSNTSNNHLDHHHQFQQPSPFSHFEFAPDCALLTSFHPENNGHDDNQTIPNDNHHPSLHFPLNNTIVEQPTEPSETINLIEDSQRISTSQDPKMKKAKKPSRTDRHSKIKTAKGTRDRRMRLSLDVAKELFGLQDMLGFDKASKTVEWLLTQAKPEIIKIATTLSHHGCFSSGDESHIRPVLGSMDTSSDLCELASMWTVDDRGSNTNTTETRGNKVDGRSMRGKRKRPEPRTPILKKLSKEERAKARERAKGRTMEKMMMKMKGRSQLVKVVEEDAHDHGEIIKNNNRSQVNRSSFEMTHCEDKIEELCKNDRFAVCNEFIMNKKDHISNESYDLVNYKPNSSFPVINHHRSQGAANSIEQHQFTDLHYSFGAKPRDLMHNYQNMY

[9] = target: T7, cLUC-BRC1 (Arabidopsis thaliana) (UniProt A1YKT1); assay: split reporter; firefly luciferase complementation imaging (LCI): cLUC-BRC1 and TIE1-nLUC co-infiltrated in N. benthamiana leaves; luciferin, CCD imaging
T7 sequence: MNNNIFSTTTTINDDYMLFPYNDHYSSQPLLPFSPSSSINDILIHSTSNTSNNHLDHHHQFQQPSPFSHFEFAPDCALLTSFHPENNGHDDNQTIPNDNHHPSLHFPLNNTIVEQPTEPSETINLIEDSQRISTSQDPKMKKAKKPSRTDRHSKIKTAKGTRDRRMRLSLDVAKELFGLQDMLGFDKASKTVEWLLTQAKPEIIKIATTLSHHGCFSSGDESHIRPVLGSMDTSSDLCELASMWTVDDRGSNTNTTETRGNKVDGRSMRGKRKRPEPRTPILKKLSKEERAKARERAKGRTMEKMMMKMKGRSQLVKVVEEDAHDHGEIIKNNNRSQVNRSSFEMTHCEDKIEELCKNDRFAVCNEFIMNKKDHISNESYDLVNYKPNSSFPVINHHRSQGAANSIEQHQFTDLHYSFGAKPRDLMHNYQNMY

[10] = target: T8, BRC1-GFP (Arabidopsis thaliana) (UniProt A1YKT1); assay: FRET or BRET; acceptor photobleaching FRET (APB-FRET), GFP donor and mCherry acceptor, transient in N. benthamiana leaves
T8 sequence: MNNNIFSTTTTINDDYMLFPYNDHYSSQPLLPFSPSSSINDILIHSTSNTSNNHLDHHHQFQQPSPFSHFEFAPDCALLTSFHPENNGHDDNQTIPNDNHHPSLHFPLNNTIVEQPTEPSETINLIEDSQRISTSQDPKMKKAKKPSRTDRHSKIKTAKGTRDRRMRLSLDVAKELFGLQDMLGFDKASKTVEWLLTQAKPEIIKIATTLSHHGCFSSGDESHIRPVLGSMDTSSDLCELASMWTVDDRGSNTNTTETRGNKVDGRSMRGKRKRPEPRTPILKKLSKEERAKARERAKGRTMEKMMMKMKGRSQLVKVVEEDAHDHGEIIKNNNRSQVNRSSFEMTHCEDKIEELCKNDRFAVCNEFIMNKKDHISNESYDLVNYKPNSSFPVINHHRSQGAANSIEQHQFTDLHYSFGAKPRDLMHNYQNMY

[11] = target: T9, BRC1-mCherry (Arabidopsis thaliana) (UniProt A1YKT1); assay: as above
T9 sequence: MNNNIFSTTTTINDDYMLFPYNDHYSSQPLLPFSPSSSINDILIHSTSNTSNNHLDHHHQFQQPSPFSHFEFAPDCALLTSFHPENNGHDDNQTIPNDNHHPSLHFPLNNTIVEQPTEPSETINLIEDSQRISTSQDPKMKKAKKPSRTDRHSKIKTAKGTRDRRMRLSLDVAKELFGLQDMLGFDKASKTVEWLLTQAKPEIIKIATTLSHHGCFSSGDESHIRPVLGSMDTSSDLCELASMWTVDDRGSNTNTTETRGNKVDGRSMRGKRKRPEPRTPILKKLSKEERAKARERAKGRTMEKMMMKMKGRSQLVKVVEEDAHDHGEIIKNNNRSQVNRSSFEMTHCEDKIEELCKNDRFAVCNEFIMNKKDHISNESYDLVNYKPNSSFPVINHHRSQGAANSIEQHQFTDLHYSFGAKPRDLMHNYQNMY

B1: BRANCHED1 (BRC1) fused to GAL4-AD (protein, UniProt A1YKT1 1-433)
chain: MNNNIFSTTTTINDDYMLFPYNDHYSSQPLLPFSPSSSINDILIHSTSNTSNNHLDHHHQFQQPSPFSHFEFAPDCALLTSFHPENNGHDDNQTIPNDNHHPSLHFPLNNTIVEQPTEPSETINLIEDSQRISTSQDPKMKKAKKPSRTDRHSKIKTAKGTRDRRMRLSLDVAKELFGLQDMLGFDKASKTVEWLLTQAKPEIIKIATTLSHHGCFSSGDESHIRPVLGSMDTSSDLCELASMWTVDDRGSNTNTTETRGNKVDGRSMRGKRKRPEPRTPILKKLSKEERAKARERAKGRTMEKMMMKMKGRSQLVKVVEEDAHDHGEIIKNNNRSQVNRSSFEMTHCEDKIEELCKNDRFAVCNEFIMNKKDHISNESYDLVNYKPNSSFPVINHHRSQGAANSIEQHQFTDLHYSFGAKPRDLMHNYQNMY
B1 was tested, and the binding [1] was “binds”, the binding [2] was “binds” and the binding [3] was “no binding”. The binding [4] was “binds”, the binding [5] was “binds” and the binding [6] was “binds”.

B2: His-tagged TIE1 (protein, UniProt Q6IDB0 1-193)
chain: MGSSFFGRPKMGGSSSSSPTSSSSSPAKRGKNKNGSDKPKQPQRGLGVAQLEKIRLHGEYNCNSFNTYPSYHPSTYQEDVRIQGGYPSIPSSSPSFSYASSSPPPAPYGFHPNMMMNANNDQYERTTIRYGDSQPHRAPSWNPSYGILESQHFVEPNTTRHFLHEDQRNISLGSGIQNFETSEANELDLELRL
For B2, the binding [7] was “binds”.

B3: nYFP-TIE1 (protein, UniProt Q6IDB0 1-193)
chain: MGSSFFGRPKMGGSSSSSPTSSSSSPAKRGKNKNGSDKPKQPQRGLGVAQLEKIRLHGEYNCNSFNTYPSYHPSTYQEDVRIQGGYPSIPSSSPSFSYASSSPPPAPYGFHPNMMMNANNDQYERTTIRYGDSQPHRAPSWNPSYGILESQHFVEPNTTRHFLHEDQRNISLGSGIQNFETSEANELDLELRL
With B3 the binding [8] was “binds”.

B4: TIE1-nLUC (protein, UniProt Q6IDB0 1-193)
chain: MGSSFFGRPKMGGSSSSSPTSSSSSPAKRGKNKNGSDKPKQPQRGLGVAQLEKIRLHGEYNCNSFNTYPSYHPSTYQEDVRIQGGYPSIPSSSPSFSYASSSPPPAPYGFHPNMMMNANNDQYERTTIRYGDSQPHRAPSWNPSYGILESQHFVEPNTTRHFLHEDQRNISLGSGIQNFETSEANELDLELRL
For B4, the binding [9] was “binds”.

B5: TIE1-mCherry (protein, UniProt Q6IDB0 1-193)
chain: MGSSFFGRPKMGGSSSSSPTSSSSSPAKRGKNKNGSDKPKQPQRGLGVAQLEKIRLHGEYNCNSFNTYPSYHPSTYQEDVRIQGGYPSIPSSSPSFSYASSSPPPAPYGFHPNMMMNANNDQYERTTIRYGDSQPHRAPSWNPSYGILESQHFVEPNTTRHFLHEDQRNISLGSGIQNFETSEANELDLELRL
In the case of B5, the binding [10] is reported as “binds”.

B6: TIE1-GFP (protein, UniProt Q6IDB0 1-193)
chain: MGSSFFGRPKMGGSSSSSPTSSSSSPAKRGKNKNGSDKPKQPQRGLGVAQLEKIRLHGEYNCNSFNTYPSYHPSTYQEDVRIQGGYPSIPSSSPSFSYASSSPPPAPYGFHPNMMMNANNDQYERTTIRYGDSQPHRAPSWNPSYGILESQHFVEPNTTRHFLHEDQRNISLGSGIQNFETSEANELDLELRL
B6 was tested, and the binding [11] was “binds”.

B7: TCP domain of BRC1 fused to GAL4-AD (domain or fragment, UniProt A1YKT1 148-206)
chain: RTDRHSKIKTAKGTRDRRMRLSLDVAKELFGLQDMLGFDKASKTVEWLLTQAKPEIIKI
In the case of B7, the binding [6] is reported as “binds”.
